# According to the BET-seq Pho4 binding data (Le et al. 2018):
# Some of the results follow. Values were computed here from the reads of four pooled replicates and scatter widely.
# Molecular target: T1, Pho4 (S. cerevisiae) (UniProt P07270)
# T1 sequence: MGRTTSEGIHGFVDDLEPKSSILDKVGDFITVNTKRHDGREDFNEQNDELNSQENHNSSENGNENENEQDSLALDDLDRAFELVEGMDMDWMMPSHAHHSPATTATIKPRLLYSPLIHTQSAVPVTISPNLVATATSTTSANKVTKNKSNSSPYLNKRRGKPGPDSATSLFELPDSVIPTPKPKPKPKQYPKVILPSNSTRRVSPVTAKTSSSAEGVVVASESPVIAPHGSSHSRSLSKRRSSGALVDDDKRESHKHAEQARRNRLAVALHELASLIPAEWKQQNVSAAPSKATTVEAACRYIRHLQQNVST
# Experiment: relative binding free energy (BET-seq); higher = weaker binding
# Conditions: reference: library average
row,Sequence,relative binding free energy [kcal/mol]
1,AACATCACGTGGGGTG,0
2,TTATTCACGTGGTCAG,0.23
3,GCTGTCACGTGTGTGG,0.12
4,TGTAGCACGTGGGTCG,-0.16
5,TTTGTCACGTGAGCTG,0.29
6,TGTCGCACGTGAGTAT,0.17
7,TAGGGCACGTGATATT,0
8,GTAAGCACGTGTGGTA,-0.01
9,GTCTCCACGTGTTTGG,0.13
10,TGGGTCACGTGAGCAT,0.23
11,GTCGGCACGTGTATGT,-0.11
12,GGTCACACGTGTAGGT,0.16
13,TCGTTCACGTGGGGTG,0.17
14,AGATTCACGTGAGCGG,0.36
15,TCGGACACGTGGGCGG,-0.03
16,AAAAGCACGTGTAGGT,-0.18
17,AGTGTCACGTGAGATT,0.2
18,TTAGACACGTGCCGGG,-0.07
19,TGGTACACGTGAGTTC,0.27
20,ATTGCCACGTGTGGGG,-0.16
21,TGGTGCACGTGCGAAT,-0.05
22,AATGTCACGTGGTGCG,-0.04
23,CAGGTCACGTGGATTG,0.12

row,Sequence,relative binding free energy [kcal/mol]
1,GATGGCACGTGTTTCA,0.02
2,GATGACACGTGGTTTA,0.07
3,ACTGGCACGTGGAAGT,-0.09
4,TGCGTCACGTGAGATT,0.38
5,TCGTACACGTGAATTG,0.44
6,GTATTCACGTGCGTAA,0.26
7,TTAGCCACGTGGTTGG,-0.16
8,TGGGCCACGTGGTGCA,-0.1
9,GCGCGCACGTGGAGTG,-0.12
10,AGTGACACGTGGCTGT,-0.11
11,AAGTGCACGTGGCAGG,-0.09
12,GATATCACGTGTAGAG,0.27
13,TGGGTCACGTGTATAA,-0.09
14,GATATCACGTGGGTCG,-0.11
15,TCTGGCACGTGGTCGA,-0.14
16,GTTGGCACGTGGGCAA,-0.18
17,TAGATCACGTGTCATG,0.07
18,TTGTACACGTGTATTG,0.14
19,GTTATCACGTGGACTT,0.2
20,GTTTACACGTGAGTGC,0.31
21,GGTGGCACGTGCAGGA,-0.02
22,TAAGGCACGTGGAGGA,-0.09
23,CAAGTCACGTGGTAGA,0.1

row,Sequence,relative binding free energy [kcal/mol]
1,CGGAGCACGTGGGTAT,-0.28
2,TGTGTCACGTGACTTG,0.05
3,TTTATCACGTGAAGCT,0.28
4,GGTAGCACGTGAATTT,0.41
5,GTGTGCACGTGGAAGA,0.06
6,GTTTGCACGTGCGGGC,0.1
7,ACGTACACGTGTAGTG,0.02
8,AGAGACACGTGGGTGT,-0.16
9,TACTGCACGTGGATTT,0.09
10,GTGGCCACGTGCGGGA,-0.02
11,TTGGCCACGTGTAGGT,-0.04
12,ATGTGCACGTGCTAGG,-0.21
13,ATATGCACGTGGGGGT,-0.21
14,CGCGACACGTGAGGGG,0.22
15,CGTGGCACGTGATAGG,-0.06
16,TTGGGCACGTGTCCAT,0
17,TGGGCCACGTGGTTCT,-0.25
18,AGAGCCACGTGGGGGT,-0.14
19,CGGTTCACGTGTGTCT,0.29
20,AAGGACACGTGGCGGT,-0.04
21,GGTAGCACGTGTGACG,0.05
22,AGGAGCACGTGAGTGG,0.25
23,GTGGACACGTGTTGGT,0.03

row,Sequence,relative binding free energy [kcal/mol]
1,TCCTGCACGTGGGGGC,-0.14
2,TTATACACGTGTAAAG,0.2
3,AGTGGCACGTGTGTCG,-0.12
4,AGTGTCACGTGCGCTT,0.04
5,TGATGCACGTGGGGTC,-0.07
6,TGTTCCACGTGTGTTG,0
7,AGCTCCACGTGGGTGT,-0.07
8,GAGTACACGTGTGTTC,0.23
9,ATGGTCACGTGGTTAC,-0.01
10,GGCGTCACGTGGGCGT,-0.03
11,GGAGTCACGTGGTCTG,0.16
12,CTGTTCACGTGAGGAT,0.3
13,CCGGGCACGTGGGAGT,-0.26
14,GGATACACGTGGGGAA,-0.04
15,GGGCACACGTGTGTAT,0.03
16,TTTTTCACGTGGGCTT,0.19
17,GTGTACACGTGGGCTA,-0.11
18,GAGTTCACGTGGTACG,0.33
19,TTACACACGTGTTATT,0.07
20,TACGTCACGTGTTCGG,0
21,TGACTCACGTGTTTTG,0.22
22,GTTGACACGTGGTGGG,-0.12
23,ATATTCACGTGATGAT,0.29

row,Sequence,relative binding free energy [kcal/mol]
1,AAGGGCACGTGGCGGA,-0.21
2,AATAGCACGTGCGGTT,-0.04
3,AGGTTCACGTGAATAA,0.58
4,GTTATCACGTGGGAAT,0.15
5,GTGTCCACGTGGGTTG,-0.02
6,AGGTCCACGTGTGATT,0.11
7,TTAGTCACGTGGGAGT,0.02
8,TCGTGCACGTGTCGGG,0.02
9,AGTTTCACGTGTTTTT,0.36
10,AGGCACACGTGTTTGA,0.1
11,GTTATCACGTGTATGT,0.18
12,GGGATCACGTGTGGCA,0.09
13,TGGGTCACGTGTATAT,0.2
14,CAAGGCACGTGGCGTG,-0.25
15,ATGTACACGTGTCTTT,0.17
16,AAAGTCACGTGAGATT,0.24
17,TGCGTCACGTGACGTG,0.18
18,ATACACACGTGGTTTT,0
19,AGCTACACGTGCGGGG,0.07
20,GAGTGCACGTGTCGGA,0.18
21,CTTTGCACGTGAGAAG,0.22
22,GTGTACACGTGGTTCG,0.04
23,GTTATCACGTGTCAGT,0.29
